This passage reports inhibition results from PubChem BioAssay AID1434 (Sanford-Burnham Center for Chemical Genomics, 2008).

Several values for one entry are separate records, joined by “and”; a condition that tells them apart may be missing. Equal entries are not always repeated. This is one part of the list. Further columns of the screen follow, without active or inactive calls. Compounds called inactive in the main read-out are mostly missing here.

For orientation: inhibition means the change of the read-out against control, counted positive when it falls.

For this assay, the target named is Runt-related transcription factor 1 (Homo sapiens) + Core-binding factor subunit beta (Homo sapiens) (UniProt Q01196+Q13951). The assay is described as follows: inhibitors of RUNX1 Runt–CBFb-SMMHC binding, primary screen, biochemical, FRET, Cerulean-Runt, Venus-CBFb-SMMHC, uHTS (AID 1434).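 Note: 0% = DMSO wells and 100% = wells with excess untagged CBFb-SMMHC; inhibitors lower the FRET ratio by blocking Runt binding to CBFb-SMMHC.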 As to conditions: Cerulean-Runt/Venus-CBFb-SMMHC FRET ratio 530/480, 1 h; retest duplicate average; at 20 µM; stronger effect = higher value.
UniProt Q01196, sequence (Q01196 whole entry, looked up): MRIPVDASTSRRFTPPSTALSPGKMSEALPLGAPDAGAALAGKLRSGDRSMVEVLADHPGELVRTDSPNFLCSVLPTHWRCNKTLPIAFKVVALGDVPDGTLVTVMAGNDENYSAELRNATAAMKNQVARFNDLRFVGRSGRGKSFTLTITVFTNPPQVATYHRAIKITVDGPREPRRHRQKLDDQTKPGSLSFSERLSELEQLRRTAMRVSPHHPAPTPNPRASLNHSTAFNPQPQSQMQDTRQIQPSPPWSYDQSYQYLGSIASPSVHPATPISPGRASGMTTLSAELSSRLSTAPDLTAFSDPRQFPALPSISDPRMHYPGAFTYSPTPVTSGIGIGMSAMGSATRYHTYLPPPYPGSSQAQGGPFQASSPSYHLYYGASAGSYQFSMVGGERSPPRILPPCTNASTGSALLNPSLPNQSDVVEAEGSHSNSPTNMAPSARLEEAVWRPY
UniProt Q01196, sequence (Q13951 whole entry, looked up): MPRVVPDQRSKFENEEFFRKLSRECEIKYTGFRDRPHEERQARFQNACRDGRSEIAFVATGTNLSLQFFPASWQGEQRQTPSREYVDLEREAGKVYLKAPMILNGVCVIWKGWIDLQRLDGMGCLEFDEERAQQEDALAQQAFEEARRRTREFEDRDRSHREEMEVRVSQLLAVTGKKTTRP
On to `CCc1nnc(NC(=O)c2sc3nc4c(cc3c2N)CCCCC4)s1`, for which the inhibition was found to be 67.8%.
The result for `Cc1cc(=O)oc2c(CN(C)Cc3ccccc3)c(O)ccc12` reads 102%.
In the case of `COC(=O)C1=CN(Cc2cccs2)C=C(C(=O)OC)C1c1cccc(O)c1` it was 149%; in that of `Cc1ccccc1-n1c2nc(=O)n(C)c(=O)c-2cc2ccccc21`, 70.6%; in that of `Cc1ccccc1-n1c(O)c(/C=C/C=Nc2ccccc2)c(=O)[nH]c1=O`, 56%.
The result for `CSC(=S)N/N=C/c1ccc(N(C)C)cc1` reads 79.7%; that for `CCn1c(C)c(C(C)=O)c(N2CCN(c3ccccn3)CC2)nc1=S`, 114%; that for `CCOC(=O)C1=C(CSc2nc3c(cc2C#N)CN(C)CC3)OC(N)=C(C#N)C1c1ccccc1` (stereo unspecified), 105%.
As to `CCOC(=O)Cc1c(C)c2c(O)cc(O)cc2oc1=O`, the inhibition was determined as 66.6%.
The result for `CCOC(=O)c1sc(Nc2nc3c(F)cccc3s2)cc1C` reads 99.1%.
In the case of `COC(=O)c1cc2c(-c3ccccc3)cc3ccccn3c-2c1C(=O)OC` it was 85.9%.
In the case of `O=C(O)CCC(=O)N1CCN(c2nc(-c3ccccc3Cl)c3cc(Br)ccc3n2)CC1` it was 56.7%.
In the case of `CCOC(=O)c1sc(-c2ccc(Cl)cc2Cl)nc1O`, the inhibition amounted to 64.3%.
Consider `CCn1c(=N)c(C(=O)NC)cc2c(=O)n3cccc(C)c3nc21`, for which the inhibition came to 72.9%.
In the case of `CC(=O)N1CCc2c(sc(NC(=O)c3ccc4c(c3)OCCO4)c2C#N)C1`, the inhibition stood at 92.2%.
Turning to `CCc1ccc(C2=CC(c3cc(Br)ccc3F)n3ncnc3N2)cc1` (stereo unspecified), the inhibition turned out to be 71.5%.
The result for `CCN1CCc2nc(NC(=O)c3ccccc3)sc2C1` reads 116%; that for `N=c1oc2cc(O)ccc2cc1C(=O)Nc1nc2ccccc2s1`, 71.5%.
Regarding `CC1=C(C#N)C(C)C2=C(CC(C)(C)CC2=O)N1` (stereo unspecified), the inhibition turned out to be 58.4%.
`N#C/C(=C\c1ccncc1)c1nc2c(s1)CCCC2`: the inhibition amounted to 69.5%.
The result for `COc1ccc2nccc(/C=C/c3ccnc4ccc(OC)cc34)c2c1` reads 70.6%; that for `CCCc1cc(=O)oc2c(CN3CCCC3)c(O)c(Cl)cc12`, 178%; that for `CC1(C)CC(=O)C2=C(C1)OC(N)=C(C#N)C2c1ccccc1[N+](=O)[O-]` (stereo unspecified), 94.8%.
In the case of `CC(=O)c1sc2nc(C)c3c(c2c1N)CCCC3`, the inhibition was found to be 100%.
In the case of `COCCN1C=C(C(=O)OC)C(c2ccccc2C(F)(F)F)C(C(=O)OC)=C1` it was 132%; in that of `Cc1cc2c(c(=O)n1Cc1cccnc1)C(Cc1ccccc1)C(C#N)=C(N)O2` (stereo unspecified), 72.8%; in that of `C=CCn1c(N)c(C(=O)OCCC)c2nc3ccccc3nc21`, 141%.
As for `Oc1cc(-n2cccn2)c(O)cc1-n1cccn1`, the inhibition came to 91.1%.
Take `CCOc1cc(-c2nc3ccccc3s2)ccc1O`: the inhibition turned out to be 130%.
In the case of `Cc1ccc2nc(N3CCN(Cc4nnnn4Cc4ccccc4)CC3)c(C#N)cc2c1` it was 85.1%; in that of `Cc1cc(/C=N/NC(=O)Cn2c3ccccc3c(=O)c3ccccc32)c(C)n1-c1ccc(Cl)cc1`, 158%; in that of `Cc1sc2nc3ccc(NCc4ccco4)nn3c(=O)c2c1C`, 71.2%.
Take `CN1CCc2c(sc(/N=C/c3cccs3)c2C(N)=O)C1`: the inhibition was 140%.
The result for `CN1CCC2(CC1)C1CN(C)CC=C1C(C#N)=C(N)C2(C#N)C#N` (stereo unspecified) reads 125% and 62.6%; that for `Cc1cc(C)c2c(=O)n(CC(=O)NC3CCCC3)sc2n1`, 60.6%; that for `CC(=O)c1cc2ccc(O)cc2oc1=O`, 70.6%.
Regarding `CCn1nc(NC(=O)c2ccco2)c2cc3cc(C)ccc3nc21`, the inhibition was 58.3%.
The result for `CCOCCCNC(=S)N1CCCN(c2nc3cc(C)c(C)cc3cc2C#N)CC1` reads 73.6%; that for `COc1cc(C(=S)N2CCCC2)ccc1O`, 67.8%; that for `O=[N+]([O-])c1ccc(CNC2CCCc3ccccc32)cc1` (stereo unspecified), 81.8%.
In the case of `COc1ccc(OC)c(C2C3=C(CCCC3=O)Nc3c2c(=O)n(C)c(=O)n3C)c1` (stereo unspecified) it was 68.2%; in that of `CCc1ccc(/C=C2\Oc3c(ccc(O)c3CN3CCN(C)CC3)C2=O)cc1`, 70.6%.
In the case of `Cc1cc(C)n2nc3nc4c(cc3c2n1)CCCC4` it was 109%; in that of `CN1c2ccsc2C(O)=C(C(=S)Nc2ccc(F)c(Cl)c2)S1(=O)=O`, 119%.
Take `CCN(C(=O)CN1CCc2ccccc21)c1c(N)n(Cc2ccccc2)c(=O)[nH]c1=O`: the inhibition came to 69.3%.
As for `c1ccn2c(c1)nc1c2nc2ccccn21`, the inhibition came to 72.9%.
The result for `CC(C)N1CCc2c(sc(N)c2C#N)C1` reads 149%; that for `CCc1ccc(/C=C2\Oc3c(ccc(O)c3CN3CCN(CCO)CC3)C2=O)cc1`, 70.6%; that for `CCOC(=O)CSc1nc(N2CCOCC2)c2c(c1C#N)CC(C)(C)N(C)C2`, 128%.
`CC1=CC(c2ccc(Cl)cc2)n2nc(NC(=O)CCC(=O)O)nc2N1` (stereo unspecified): the inhibition came to 63.4%.
On to `CC(=O)Oc1c(-c2ccco2)oc2ccccc2c1=O`, for which the inhibition was determined as 70.6%.
Consider `Cc1ccc(/C=C2/SC(=O)NC2=S)o1`, for which the inhibition was 70.9%.
In the case of `Fc1ccc(C2CC(c3cccs3)=NN2c2ccccc2)cc1` (stereo unspecified) it was 53.9%; in that of `CCCc1cc(=O)oc2c(CN(CC)CC)c(O)c(Cl)cc12`, 163%.
As for `CCSc1ccc(-c2nn(-c3ccccc3)cc2/C=C(/C#N)C(=O)NC)cc1`, the inhibition turned out to be 71.2%.
The result for `CCCn1nc(NC(=O)c2cccs2)c2cc3cc(C)ccc3nc21` reads 94.8%; that for `CC(=O)c1ccc(Nc2c3c(c(C#N)c4nc5ccccc5n24)CCC3)cc1`, 54.9%; that for `CC(C)c1ccc(/C=C2\Oc3c(ccc(O)c3CN3CCN(C)CC3)C2=O)cc1`, 70.6%.
The result for `COc1ccc(C(=O)/C=C/Nc2ccc(S(=O)(=O)Nc3nc(C)cc(C)n3)cc2)c(OC)c1` reads 117%; that for `COc1ccc(N2C3=C(CC4=C2CCCC4=O)C(=O)CCC3)cc1`, 106%.
With `O=C(Nc1nc2ccccc2s1)c1cc2c(s1)-c1ccccc1OC2`, the inhibition came to 81.5%.
Consider `Nc1nc2nc(-c3ccc(Cl)cc3)cc(C(F)(F)F)n2n1`, for which the inhibition is 59.3%.
In the case of `Cc1ccc(/C=C(\C#N)C(=O)Nc2cccc3ncccc23)o1` it was 181%; in that of `COCCCNC(=O)c1cc2c(=O)n3cc(C)ccc3nc2nc1NCC1CCCO1` (stereo unspecified), 71.5%; in that of `O=C(O)c1cc(N/N=C/C=C/c2ccccc2)ccc1Cl`, 87.2%.
With `COCC(C)OC(=O)c1c(N)n(CC(C)C)c2nc3ccccc3nc12` (stereo unspecified), the inhibition was 130%.
In the case of `COc1cc(Cn2c(N)c(C#N)c3nc4ccccc4nc32)cc(OC)c1` it was 141%; in that of `COc1ccc(-c2ccc(CCC(=O)O)n2CC2CCCO2)cc1` (stereo unspecified), 84.8%; in that of `CCCCCNc1nc2sc3c(c2c(=O)n1-c1cccc(Cl)c1)CCN(C)C3`, 153%.
In the case of `N#Cc1c(NCCO)nc(NCc2ccccc2)c2c1CCN(Cc1ccccc1)C2` it was 72.9%.
The result for `CN(C)c1nc(-c2cccs2)cc(C(F)(F)F)c1C#N` reads 102%; that for `OCCN1CCN(c2nc(-c3ccccc3)c3cc(Cl)ccc3n2)CC1`, 58.8%; that for `COC(=O)C1=CNC=C(C(=O)OC)C1c1cccc(OC)c1`, 109%.
In the case of `Cc1ccc(C2NC(=O)c3c(sc4c3CCN(C)C4)N2)o1` (stereo unspecified), the inhibition worked out at 154%.
The result for `CCCn1c(=N)c(C(=O)NC2CCCC2)cc2c(=O)n3cccc(C)c3nc21` reads 71.5%; that for `CC(C)OCCCn1c(=N)c(C(N)=S)cc2c(=O)n3ccccc3nc21`, 72.9%.
In the case of `COc1cc(-c2onc3ccc(Br)cc23)cc(OC)c1OC` it was 129%; in that of `N#Cc1c(N)n(CCc2ccc(F)cc2)c2nc3ccccc3nc12`, 104%; in that of `Fc1ccc(N2N=C(c3cccs3)CC2c2ccccc2)cc1` (stereo unspecified), 69.6%.
With `C=C1c2cc(C)c(C)cc2NC(=O)N1c1ccccc1`, the inhibition came out at 53.6%.
In the case of `Cc1ccc(Cn2c(=N)c(C(=O)NCc3ccco3)cc3c(=O)n4ccccc4nc32)cc1` it was 71.5%.
Turning to `Cc1c(NC(=S)N/N=C/c2ccc(N(C)C)cc2)c(=O)n(-c2ccccc2)n1C`, the inhibition was 53.3%.
In the case of `O=C1C2C3C=CC(CO)(O3)C2C(=O)N1c1ccccc1-c1ccccc1` (stereo unspecified) it was 67.3%.
In the case of `CCN(CC)c1ccc2cc(S(=O)(=O)c3ccc(C)cc3)c(=O)oc2c1` it was 71.5%; in that of `CCN(CC)c1ccc(/C=C(\C#N)C(=O)NCc2ccccc2)cc1`, 103%.
In the case of `CCCCn1nc(NC(=O)c2cccs2)c2cc3ccccc3nc21` it was 66.1%.
Regarding `CN1CC=C2C(C#N)=C(N)C(C#N)(C#N)[C@H](c3ccoc3)[C@H]2C1`, the inhibition amounted to 55.5%.
The result for `CCc1cc2c(CN3CCN(CCO)CC3)cc(=O)oc2cc1O` reads 71.5%; that for `Cc1ccc(C2C3=C(CC(C)(C)CC3=O)N(CCN3CCOCC3)C3=C2C(=O)CC(C)(C)C3)cc1`, 72.9%.
In the case of `CCOc1ccc(-c2csc(NC(=O)CSCC(=O)O)n2)c2ccccc12` it was 112%; in that of `CC(C)N1CCc2c(sc(NC(=O)CCc3ccccc3)c2C(N)=O)C1`, 70.8%.
